Several values for one entry are separate records, joined by “and”; a condition that tells them apart may be missing. Equal values may be shown once. The whole screen tested about 130,000 compounds, of which about 1,900 (1.5%) were called active. Inconclusive results, whose numbers are uncertain, are shown with a selection of clear calls. Calls follow the shape of the dose curve; as a rule, active = well fitted cell-killing curve with a large enough effect; inconclusive = small, poorly fitted or top-dose-only effect; inactive = no such curve, though single readings can be large or run the other way. A potency beside an inconclusive call is a rough fit, not a confirmed value. A structure can be active in one record and inactive in another.
Experiment: qHTS Screen for Compounds that Selectively Target Cancer Cells with p53 Mutations: Cytotoxicity of p53ts Cells at the Nonpermissive Temperature; also: nearly all actives have a fitted effect of over 55% in size
Settings: H1299-p53A138V viability at 39C, ATP luminescence, 24 h; activity change, negative = cell killing: at 46.1 µM (top of the series)
% is scaled to controls: 0 for no effect and ±100 for the full control effect; potency is read from the fitted curve at half-maximal effect; tags tell the direction and shape of the fitted curve.

Q: With `O=C(CN(CCc1ccccc1)C(=O)Cn1nnc(-c2cccs2)n1)NCc1ccco1` as the compound, how does the Potency read?
A: The Potency was “inactive”.

Q: Which Potency does the source give for `N#CC(C(=O)NCc1ccco1)c1nc2ccccc2nc1N1CCOCC1` (centres undefined) here?
A: The Potency was “inactive”.

Q: For `Cc1cc(C(=O)Nc2sc(C)c(-c3ccc(F)cc3)c2C(N)=O)no1`, which Potency is on record?
A: The Potency was inconclusive: 10 µM [cytotoxic, partial curve].

Q: Which Potency does the source give for `Cc1ccccc1CNC(=O)CN1CCSc2ccccc21` here?
A: Its Potency is inconclusive: 3.98 µM [cytotoxic, single point].

Q: With `Nc1nc2nc(-c3ccccc3)cc(=O)n2[nH]1` as the compound, how does the Potency read?
A: Its Potency is inconclusive: 7.94 µM [cytotoxic, partial curve].

Q: For `CSc1ccc(CCNC(=O)c2c(C)nn(-c3ccc(F)cc3)c2-n2cccc2)cc1`, which Potency is on record?
A: Its Potency is inconclusive: 0.0316 µM [cytotoxic, full curve, poor fit].

Q: For `CN(C)CCNC(=O)c1ccc2nc(Cc3ccccc3)oc2c1`, which Potency is on record?
A: The Potency was inconclusive: 1.58 µM [cytotoxic, full curve, poor fit].

Q: For `COc1ccc(C2C(C(=O)OC3CCCCC3)=C(C)Nc3nnnn32)c(OC)c1OC` (centres undefined), which Potency is on record?
A: Its Potency is inconclusive: 31.6 µM [cytotoxic, single point].

Q: Which Potency does the source give for `O=C(Nc1cc(F)ccc1F)C1CCN(C(=O)c2cnn(-c3ccccc3)c2-n2cccc2)CC1` here?
A: Its Potency is “inactive”.

Q: Which Potency does the source give for `Cc1ccc(CNC(=O)c2cc3sc(Cl)cc3n2C)cc1` here?
A: Its Potency is inconclusive: 0.794 µM [cytotoxic, full curve, poor fit].

Q: Which Potency does the source give for `CCOC(=O)c1c(-c2ccccc2)oc2ccc(NS(=O)(=O)c3ccc(C)cc3)cc12` here?
A: The Potency was inconclusive: 12.6 µM [cytotoxic, single point].

Q: With `CCN1C(=O)c2ccccc2Sc2ccc(NC(=O)Nc3cc(C)cc(C)c3)cc21` as the compound, how does the Potency read?
A: The Potency was “inactive”.

Q: For `CCOC(=O)c1c(C)oc2ccc(N(C(=O)c3ccncc3)S(=O)(=O)c3ccc(F)cc3C)cc12`, which Potency is on record?
A: Its Potency is inconclusive: 25.1 µM [cytotoxic, single point].

Q: For `COc1cccc(NC(=O)CSc2nnc(-c3ccc(C)cc3)o2)c1`, which Potency is on record?
A: The Potency was inconclusive: 6.31 µM [cytotoxic, partial curve].

Q: Which Potency does the source give for `CN(C)c1cccc(-c2nnc(SCCCC#N)o2)c1` here?
A: Its Potency is inconclusive: 15.8 µM [cytotoxic, partial curve].

Q: For `CCCCOc1ccc(-c2c(C#N)c(N)nc(SCC(N)=O)c2C#N)cc1`, which Potency is on record?
A: The Potency was inconclusive: 25.1 µM [cytotoxic, single point].

Q: With `CC/C(=C(\c1ccccc1)c1ccc(OCCN(C)C)cc1)c1ccccc1` as the compound, how does the Potency read?
A: The Potency was active: 20 µM and active: 31.6 µM.

Q: Which Potency does the source give for `COc1ccc(OC)c(NC(=O)CSc2nnnn2-c2ccc3c(c2)OCO3)c1` here?
A: Its Potency is inconclusive: 25.1 µM [cytotoxic, single point].

Q: Which Potency does the source give for `Cc1cccc(C(=O)Nc2ccc(CC(=O)O)cc2)c1` here?
A: Its Potency is inconclusive: 31.6 µM [cytotoxic, single point].

Q: For `Cc1ccc(C(C)C)c(OCC(=O)Nc2ccc3c(c2)nc(CCNC(=O)c2ccco2)n3C)c1`, which Potency is on record?
A: The Potency was inconclusive: 3.16 µM [cytotoxic, partial curve, poor fit].

Q: Which Potency does the source give for `COc1ccc(NC(=O)Cn2c(=O)c3cccn3c3ccccc32)cc1` here?
A: Its Potency is inconclusive: 0.0501 µM [cytotoxic, full curve, poor fit].

Q: With `CCOC(=O)c1c(NC(=O)c2ccc(S(=O)(=O)N3CCCC(C)C3)cc2)sc2c1CC(C)(C)NC2(C)C` (centres undefined) as the compound, how does the Potency read?
A: Its Potency is inconclusive: 15.8 µM [cytotoxic, single point].

Q: For `COc1nc(C)ccc1-c1noc(-c2ccco2)n1`, which Potency is on record?
A: Its Potency is active: 12.6 µM.

Q: Which Potency does the source give for `COc1ccc(C)cc1NC(=O)c1cc2ccccc2o1` here?
A: Its Potency is “inactive”.

Q: With `CC(C)=CCC/C(C)=C/CO/N=C1/C[C@@H](O)[C@@H](O)[C@@H]2[C@@H]3C(=O)N(C[C@@H]4CCCO4)C(=O)[C@H]3CC[C@H]12` as the compound, how does the activity change, negative = cell killing read?
A: Its activity change, negative = cell killing is inactive: 8.63% [at 9.22 µM].

Q: Which Potency does the source give for `CCCN1C[C@@H](CSC)C[C@H]2c3cccc4[nH]cc(c34)C[C@@H]21` here?
A: Its Potency is “inactive”.

Q: For `CCOC(=O)C1=C(O)C(=O)N(Cc2ccccc2)C1`, which Potency is on record?
A: Its Potency is inconclusive: 15.8 µM [cytotoxic, partial curve].

Q: With `O=C(Cn1nnc(-c2ccccc2NC(=O)c2cccs2)n1)Nc1ccccc1` as the compound, how does the Potency read?
A: The Potency was inconclusive: 12.6 µM [cytotoxic, single point].

Q: For `COc1ccc(C(NC(C)=O)c2ccc3cccnc3c2O)c(OC)c1` (centres undefined), which Potency is on record?
A: The Potency was inconclusive: 1.58 µM [cytotoxic, full curve].

Q: For `Cn1c(/C=N/c2nc3ccccc3[nH]2)nc2ccccc21`, which Potency is on record?
A: Its Potency is inconclusive: 25.1 µM [cytotoxic, single point].

Q: For `CCCCCc1nnc(NC(=O)Cn2cnc3ccccc3c2=O)s1`, which Potency is on record?
A: Its Potency is “inactive”.

Q: With `O=C(Nc1nc(-c2cccs2)cs1)c1ccc(Cl)s1` as the compound, how does the Potency read?
A: The Potency was “inactive”.

Q: For `O=C(Nc1nc(-c2ccc(Cl)s2)cs1)c1ccncc1`, which Potency is on record?
A: Its Potency is “inactive”.

Q: Which Potency does the source give for `C=Cc1ccc(Cn2c(C(=O)O)c(CNCCc3ccccc3)c3ccc(C)cc32)cc1` here?
A: The Potency was inconclusive: 10 µM [cytotoxic, partial curve].

Q: For `Cc1ccccc1OCCCCn1c(C2CC(=O)N(c3ccccc3Cl)C2)nc2ccccc21` (centres undefined), which Potency is on record?
A: Its Potency is inconclusive: 10 µM [cytotoxic, partial curve].

Q: Which Potency does the source give for `Cc1cc(-c2ccc(S(=O)(=O)Nc3cc(Cl)ccc3C)s2)on1` here?
A: Its Potency is inconclusive: 0.0794 µM [cytotoxic, full curve].

Q: With `CCOC(=O)/C(=N\Nc1ccccc1Cl)N1CCN(C)CC1` as the compound, how does the Potency read?
A: Its Potency is inconclusive: 10 µM [cytotoxic, single point].

Q: For `CCNc1ncc2nc(-c3cccs3)c(=O)n(-c3ccccc3)c2n1`, which Potency is on record?
A: Its Potency is “inactive”.

Q: With `Cc1cc(NCCCn2ccnc2)n2nc(-c3ccc(F)cc3)cc2n1` as the compound, how does the Potency read?
A: The Potency was inconclusive: 12.6 µM [cytotoxic, partial curve].

Q: For `Cc1nc2cc(-c3ccccc3)ccc2o1`, which Potency is on record?
A: The Potency was “inactive”.

Q: Which Potency does the source give for `Cc1nn(C(C)C(=O)N2CCN(c3ccc(F)cc3)CC2)c(=O)c2c1sc1ccccc12` (centres undefined) here?
A: The Potency was “inactive”.

Q: For `COc1ccc(-c2coc3c(CN4CCCCC4)c(O)c(CN4CCCCC4)c(O)c3c2=O)cc1`, which Potency is on record?
A: Its Potency is inconclusive: 31.6 µM [cytotoxic, single point].

Q: Which Potency does the source give for `CCOc1ccc(S(=O)(=O)N(CC(=O)Nc2ccc(OC)cc2OC)c2ccccc2)cc1` here?
A: Its Potency is inconclusive: 22.4 µM [cytotoxic, single point].

Q: Which Potency does the source give for `O=C(/C=C/N1CCOCC1)c1cc2ccccc2o1` here?
A: Its Potency is inconclusive: 10 µM [cytotoxic, partial curve].

Q: Which Potency does the source give for `CC(C)C(c1nnnn1Cc1ccccc1)N(Cc1ccco1)Cc1cccs1` (centres undefined) here?
A: The Potency was inconclusive: 20 µM [cytotoxic, single point].

Q: For `COCCNC(=O)CN1CCC(n2c(C)nc3cc(C(F)(F)F)ccc32)CC1`, which Potency is on record?
A: The Potency was “inactive”.

Q: Which Potency does the source give for `CCOc1ccc(N2CC(NC(=O)c3ccc4c(c3)OCO4)CC2=O)cc1` (centres undefined) here?
A: Its Potency is “inactive”.

Q: For `COc1ccc2[nH]c(=O)c(CN(C3CCCCC3)C(c3nnnn3Cc3ccco3)C(C)C)cc2c1` (centres undefined), which Potency is on record?
A: Its Potency is inconclusive: 31.6 µM [cytotoxic, single point].

Q: With `Cc1ccc(N2CCN(S(=O)(=O)c3nnc(NC(=O)c4ccccc4)s3)CC2)cc1` as the compound, how does the Potency read?
A: Its Potency is inconclusive: 2.51 µM [cytotoxic, partial curve].

Q: With `COc1ccc(C(=O)Nc2nnc(-c3ccccc3)o2)cc1OC` as the compound, how does the Potency read?
A: The Potency was “inactive”.

Q: Which Potency does the source give for `COC(=O)c1sccc1S(=O)(=O)N(CC(=O)Nc1cc(C)ccc1C)c1ccc(C)c(C)c1` here?
A: The Potency was inconclusive: 10 µM [cytotoxic, partial curve, poor fit].

Q: For `COc1ccccc1Oc1cc(C#N)c(C#N)cc1-n1nnc2ccccc21`, which Potency is on record?
A: Its Potency is “inactive”.

Q: Which Potency does the source give for `c1ccc2[nH]c(-c3nc4ccccc4[nH]3)nc2c1` here?
A: The Potency was inconclusive: 10 µM [cytotoxic, partial curve].

Q: With `Cc1ccc(Cl)cc1-n1ncc2c(NCCc3ccccc3)ncnc21` as the compound, how does the Potency read?
A: Its Potency is inconclusive: 15.8 µM [cytotoxic, single point].

Q: With `Cc1cccc(-c2nc(SCc3cc(=O)c4c(C)cc(C)cc4[nH]3)n[nH]2)c1` as the compound, how does the Potency read?
A: The Potency was active: 20 µM.

Q: With `Clc1ccc(C2=Nn3c(nnc3-c3n[nH]c4c3CCC4)SC2)cc1Cl` as the compound, how does the Potency read?
A: Its Potency is active: 12.6 µM.

Q: Which Potency does the source give for `COc1ccc(C(=O)NCC(c2cccnc2)N2CCN(c3ccccc3)CC2)cc1OC` (centres undefined) here?
A: The Potency was inconclusive: 12.6 µM [cytotoxic, partial curve].

Q: With `Cc1nn(C(C)C(=O)NCc2ccc(OC(C)C)cc2)c(=O)c2c1sc1ccccc12` (centres undefined) as the compound, how does the Potency read?
A: Its Potency is inconclusive: 11.2 µM [cytotoxic, partial curve].

Q: With `CC1CCCN(Cc2nc3c(c(=O)n(C)c(=O)n3C)n2CC(=O)c2ccccc2)C1` (centres undefined) as the compound, how does the Potency read?
A: The Potency was inconclusive: 15.8 µM [cytotoxic, single point].

Q: Which Potency does the source give for `CCN(C(=O)CN1C(=O)c2ccccc2Sc2ccc(C(=O)OC)cc21)c1cccc(C)c1` here?
A: The Potency was inconclusive: 0.501 µM [cytotoxic, full curve, poor fit].

Q: Which Potency does the source give for `CCOC(=O)c1sc(=S)n(-c2ccccc2OC)c1N` here?
A: The Potency was “inactive”.

Q: For `COc1ccc(/C=C2/C(=O)N(c3nc4ccccc4s3)N=C2CSc2ccc(Cl)cc2)cc1`, which Potency is on record?
A: The Potency was “inactive”.

Q: Which Potency does the source give for `CC(C)c1ccc(C2CC(=O)Nc3cc4c(cc32)OCCO4)cc1` (centres undefined) here?
A: Its Potency is inconclusive: 31.6 µM [cytotoxic, single point].

Q: With `CCOc1ccc2nc(N3CCCC(C(=O)NCCc4ccc(Cl)cc4)C3)sc2c1` (centres undefined) as the compound, how does the Potency read?
A: The Potency was inconclusive: 20 µM [cytotoxic, partial curve].

Q: With `CC[C@@H](CS(=O)(=O)O)[N+](=O)[O-]` as the compound, how does the activity change, negative = cell killing read?
A: Its activity change, negative = cell killing is inactive: -3.28% [at 9.22 µM].

Q: For `CC1N/C(=C\C(=O)c2ccccc2)N(O)C1(C)C` (centres undefined), which Potency is on record?
A: The Potency was active: 12.6 µM.

Q: With `COC(=O)c1ccc(CSc2ncnc3c2nnn3-c2ccc(F)cc2)o1` as the compound, how does the Potency read?
A: The Potency was “inactive”.

Q: With `COc1ccc(CNc2ncncc2-c2ccc(N(C)C)cc2)c(OC)c1` as the compound, how does the Potency read?
A: Its Potency is “inactive”.

Q: With `Cc1ccc(NC(=O)c2ccc3c(c2)NC(=O)c2ccccc2S3)c(Cl)c1` as the compound, how does the Potency read?
A: Its Potency is inconclusive: 10 µM [cytotoxic, partial curve].

Reference: PubChem BioAssay AID902 (National Center for Advancing Translational Sciences (NCATS), 2007)
